Assay results reported in patent publication US20150031733A1, “TETRAZOLINONE COMPOUNDS AND ITS USE” (SUMITOMO CHEMICAL COMPANY, LIMITED, priority 2012, published 2015).

Test system: cucumber anthracnose fungi (Colletotrichum lagenarium)
Assay: Cucumber anthracnose control test, foliar spray before inoculation
Assay type: in vivo
Conditions: 12.5 ppm, foliar spray 1 day before inoculation, cucumber (cv; Sagamihanjiro)

CCOc1cccc(-n2nnn(C)c2=O)c1COc1nc(-c2ccccc2C)cs1 [Compound T095, 2-{[1-(4,5-dihydro-4-methyl-5-oxo-1H-tetrazole-1-yl)-3-ethoxyphenyl-2-yl]methyloxy}-4-(2-methylphenyl)thiazole]
lesion area compared to the lesion area in untreated plants: ≤ 30%
